Data on 167 variants can be found in the RNAGym collection of RNA variant scans (doi:10.7554/elife.90254).

The source gives no read counts; variants with many changes may rest on few reads.

B1: LINE1-mini (parent)
chain: GGCAGAGCUCAACACAGCGUGGCAAAGUGGCUGUGGCUAGACUGCC

The variants in the data set derive from B1. Kind of data set: self-cleavage, relative activity (ratio to wild type); higher = more cleavage; in vitro, sequencing; the parent is a self-cleaving ribozyme.
G5A A6G A24U: the self-cleavage worked out at 0.03.
Regarding G7U A26U G33U G36A, the self-cleavage came to 0.05.
In the case of C3U A11U G30C, the self-cleavage was determined as 0.02.
To C15G G21A C42G U43A belongs 0.
To G7A C8U A12U G27U G36U G44A belongs 0.31; to C8G A12G C13U G22A, 0.02.
In the case of A12U C23G G30U G33A, the self-cleavage was 0.
As for G1A C31U C42U, the figure is 0.04; as for A6G G7U G22A C45U, 0.02; as for G7A G27C C31G U34C, 0.05.
On to C13U A24G C37G, for which the self-cleavage came out at 0.02.
Regarding A4U A6C C31G, the self-cleavage turned out to be 0.02.
As for G7U C8A C13U G19U G36U, the figure is 0.07.
For G7A G19A U28A, the self-cleavage came out at 0.24.
For the variant G1U G33A A39U, the self-cleavage turned out to be 0.05.
On to G17C U32A G33U, for which the self-cleavage worked out at 0.06.
With C8G C15A U20C A26U, the self-cleavage came out at 0.08.
As for A12U G30C C46U, the self-cleavage came out at 1.
For G21U G29C U43C, the self-cleavage stood at 0.02.
With G1C A4U C8A C18A C42A, the self-cleavage stood at 0.06.
To C3U G7C A12G A14U A25C G33U belongs 0.05.
Turning to G1C A16G G22C U28C, the self-cleavage is 0.
On to G2U U9C A14U C15A G17A C45U, for which the self-cleavage was determined as 0.01.
C13U A24C G44A: the self-cleavage was 0.02.
For C10A G27C A39C, the self-cleavage stood at 0.02.
For G2A C23G G36C, the self-cleavage is 0.06.
As to C18G G33U C42G, the self-cleavage came to 0.06.
Consider C3G A14U A26U U43A, for which the self-cleavage was found to be 0.53.
On to G1U G5U C15A C18A G29C U34A C45A, for which the self-cleavage is 0.01.
To G1C C13A G21A U43G C46A belongs 0.03; to C13A A26C C31A, 0.03; to G7C C31U G35U C37U, 0.02.
As for C3U C18A G22C A26C, the figure is 0.14; as for G1U A4C G7A G19A U28A U43C, 0.14; as for C3A A14U U38C, 0.13.
As for G35A G36C G40U, the figure is 0.27.
With C8U G17C G33U A39C, the self-cleavage was 0.01.
As for G2U G17A G19U A39C, the figure is 0.04; as for A11C C13U C15U, 0.04.
In the case of C10A A14G G29U, the self-cleavage turned out to be 0.01.
To C3A G33U C37U belongs 0.41; to C18A A26U G29U C45A, 0.07; to G1U C3G C10G A14G, 0.06.
As to C18A U20C G27U, the self-cleavage worked out at 0.1.
To A11U G17C G22C C45G belongs 0.01.
As for G5U A16U G21A C37A, the figure is 0.07.
Take G1A G5C G27C G29U C46U: the self-cleavage was found to be 0.02.
As to G2C A24G U38G, the self-cleavage came to 0.01.
As for C23U U34G U38C, the figure is 0; as for C3A G21C C23U, 0.44.
As for A11C G30A U32G, the figure is 0.01; as for A4G C8A G21C U28C G40A C46G, 0.04.
With U20G A25C C37G C45U, the self-cleavage was 0.02.
On to A4C A6U C31U, for which the self-cleavage was 0.19.
On to C8A G17U G21U U28C, for which the self-cleavage was found to be 0.07.
Regarding U9G G22C U34A C45A, the self-cleavage was found to be 0.03.
Take G19A G21C A25U G30A: the self-cleavage is 1.2.
To G5C A6G C8G G27U U28C C42U belongs 0.04.
Turning to G5C G17A G29A G33A C37A, the self-cleavage worked out at 0.03.
For the variant C3G C13A U34A U43A, the self-cleavage is 0.17.
As to G1U G5U A6G C23G G35A G40A G44C, the self-cleavage stood at 0.01.
To G7C C18G G19C G33A belongs 0.03; to U32C G35C G40C, 0.07; to C3A C15G G29A, 0.07.
For C15A A25U A41G, the self-cleavage is 0.07.
As to C13U C23U U32C G40U, the self-cleavage worked out at 0.18.
Consider G1C C37U C46U, for which the self-cleavage was determined as 0.01.
On to A24C C45A C46A, for which the self-cleavage amounted to 0.03.
In the case of G21U C31A C45A, the self-cleavage was determined as 0.07.
In the case of G2A C3A C15A G27A G30C, the self-cleavage is 2.44.
With G2C G5C G7U A25G C37U, the self-cleavage amounted to 0.03.
Turning to G7C C10G A41U G44U, the self-cleavage came out at 0.01.
To A12C A14C G17C G27U belongs 0.02; to G2C C13A A41C, 0.04.
G2C U9G C15A U28G G36C A39C: the self-cleavage was determined as 0.02.
For C13G G17U G21A A25G, the self-cleavage stood at 0.01.
For G7A A14U C15U G21U U34C, the self-cleavage was determined as 0.79.
A4G G17A G27A U38C: the self-cleavage was determined as 0.05.
With C8U C13A G44C, the self-cleavage stood at 0.22.
As for A11C G17C G21U, the figure is 0.02; as for C3A A6G G36C C46A, 0.11.
Consider A12C C13U C23G G36A, for which the self-cleavage came out at 0.02.
Turning to A4G C8U G19A G21U U32A, the self-cleavage turned out to be 0.04.
As for G19A C31A C42U C46A, the self-cleavage came out at 0.03.
As for A4G G5A G27U A39G G44A, the figure is 0.04.
As to G7A A16C A24U C42G, the self-cleavage worked out at 0.05.
Consider C3G C23A G30U C37U G44C, for which the self-cleavage was found to be 0.01.
As for C3A U9C G40C, the self-cleavage is 0.03.
For the variant G1C G19C C23A, the self-cleavage turned out to be 0.01.
On to G7U C15U A16U A25G G33A G44A, for which the self-cleavage came out at 0.06.
With C8U C13A G17A G29A G30A U43C, the self-cleavage amounted to 0.14.
In the case of A4C A16C G40A, the self-cleavage amounted to 0.1.
Consider C8G A14G G19A U28G G40C, for which the self-cleavage worked out at 0.06.
As to A4G G17A G19A U20G G40A, the self-cleavage amounted to 0.08.
Regarding G1U G5U A12U, the self-cleavage turned out to be 0.05.
As to C3A A6U G19A C23U C31A U38C C42U, the self-cleavage was 0.24.
Consider G1U G19C G27C, for which the self-cleavage stood at 0.06.
U9A C15A U43C: the self-cleavage came to 0.23.
To A14C U34C G35U belongs 0.07; to G7C C8A G33C G40U, 0.02.
Turning to G1A C3A G19A A39C, the self-cleavage came to 0.17.
Turning to C10U G19C G21A, the self-cleavage stood at 0.05.
As for C13G G40C C46G, the figure is 0.07; as for G7A C23A G27A U34C C42G, 0.08.
In the case of G1C U9C C10U G29U, the self-cleavage worked out at 0.01.
As for C8U U20A G35U A41G G44A, the self-cleavage was found to be 0.07.
Consider A4C A14C G30U, for which the self-cleavage was found to be 0.03.
On to C3U A16G G33C, for which the self-cleavage was determined as 0.
With G2U C15A U34A, the self-cleavage came out at 0.05.
For C8A A16G G29U, the self-cleavage is 0.11.
With G27U C37A A39C C42A G44A, the self-cleavage is 0.02.
As to C8A C13A G40U C46A, the self-cleavage was determined as 0.03.
C3U U28C C37G: the self-cleavage came out at 0.02.
Consider A4G G19A U20G, for which the self-cleavage came out at 0.04.
As for C18A A24G U28G G30U, the figure is 0.05; as for G5U G7A C8G C13U C15G U32A A39U, 0.01; as for C13U U20A C45G, 0.25.
Turning to G19A C23A C31G, the self-cleavage stood at 0.1.
As for G29A C31U A41U, the self-cleavage worked out at 0.55.
In the case of G2U C10A C13U A26G U28A U32C G36U, the self-cleavage is 0.01.
Take G1U C10U C13A G30A C37A: the self-cleavage worked out at 0.01.
For G22C A24C A39G, the self-cleavage amounted to 0.04.
In the case of U9A A26G U28A, the self-cleavage was found to be 0.86.
With C8U A26C U34G G36C G40A, the self-cleavage came out at 0.05.
C3A A24G C31U C37U C46A: the self-cleavage came to 0.07.
As to G5A C8U G17U A24U A26G, the self-cleavage stood at 0.39.
In the case of G2A C10A C37U, the self-cleavage is 0.02.
Take C3G C23G C42U: the self-cleavage was determined as 0.63.
In the case of G33U A39C C42G, the self-cleavage came out at 0.05.
Take C8G C10A U28C G35U: the self-cleavage was 0.02.
As to A12G G17U G30U C37U, the self-cleavage worked out at 0.31.
In the case of A4C G5U U9A A14C, the self-cleavage was 0.05.
Turning to G17U G19C U20A, the self-cleavage amounted to 0.39.
Regarding G2U A41C G44A, the self-cleavage worked out at 0.04.
As to C10U G40U A41U G44A, the self-cleavage worked out at 0.03.
With U28A G30A A39U, the self-cleavage stood at 0.58.
As for G7U C8G A12G G30C, the self-cleavage was determined as 0.02.
In the case of G5A G17A G44U, the self-cleavage is 0.02.
On to U20A G22U A39G, for which the self-cleavage worked out at 0.06.
As for G7A C31U A39C, the figure is 0.16.
Consider G5C G17C A24U A26C C37U, for which the self-cleavage was determined as 0.05.
To G22U G33U C46U belongs 0.06; to A6C U28A G40U, 0.2.
With G17U G35A A39U, the self-cleavage was 0.02.
For the variant G1C G5U G7A G33C, the self-cleavage is 0.04.
G5U U20A G22A A24G G27U A39G: the self-cleavage amounted to 0.03.
On to A14G C15U G19A G27U C46A, for which the self-cleavage came out at 0.06.
As to G2C C3U U9C G29A, the self-cleavage turned out to be 0.04.
In the case of G1U G7A G27U G29U, the self-cleavage turned out to be 0.14.
Consider G7U A11G A24U C37U, for which the self-cleavage turned out to be 0.04.
On to C37U A41G C46U, for which the self-cleavage was 0.03.
To A12C A26U G36C U43C belongs 0; to G2U G27U U34A C45A, 0.06.
On to U20A G29C U32C G33A G35C U38G C45A C46U, for which the self-cleavage is 0.
Regarding C18A G22U C23A C42G, the self-cleavage is 0.03.
C3G G7C U43C C46G: the self-cleavage turned out to be 0.04.
For G2C C23G A25G A39C, the self-cleavage came to 0.02.
As for A4C C18A A24C A25U, the figure is 0.02; as for G5C C13U A16G, 0; as for G1C C10A A14G G19C G22U U32C G40U, 0.
In the case of G1U C10G U20A G40U, the self-cleavage is 0.01.
For the variant A11C A14U A26G U32A G33U U38A, the self-cleavage is 0.01.
Take G5A A6U G7U C23G: the self-cleavage is 0.08.
In the case of G1A C10A G19A A39U, the self-cleavage came to 1.22.
In the case of A4C C23A G27C, the self-cleavage worked out at 0.03.
For the variant A14C C18U G33A, the self-cleavage stood at 0.04.
In the case of G2U A4U A12G A25C U32G A41C, the self-cleavage amounted to 0.04.
